The target of the test is T1, purified recombinant human mature GDF-8 (dimer) (human, UniProt O14793 267-375, biotinylated with Sulfo-NHS-Biotin in the ActRIIB ELISAs; 125I-labelled (chloramine T) in the L6 cell assays; labelled residues not stated).
T1 construct: It runs as a dimer on SDS-PAGE; also called myostatin; biotinylated GDF-8
T1 sequence: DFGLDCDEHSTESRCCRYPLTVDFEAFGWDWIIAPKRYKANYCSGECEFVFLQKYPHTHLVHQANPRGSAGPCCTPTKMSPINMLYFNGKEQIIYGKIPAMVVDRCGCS
The test is described as follows: ActRIIB competition ELISA with biotinylated GDF-8. (In general: In an ELISA, binding on a coated surface is turned into a signal by an enzyme label.)

B1: Human GDF-8 Propeptide-IgG1 wt Fc Fusion Protein (FIG. 11A) (Fc fusion)
chain: not shown
notes: The Fc is 232 amino acids of the human IgG1 constant region, starting at the hinge; also called human GDF-8 propeptide-IgG1 Fc fusion protein
B1: the binding result was “binds”.

Source of the values: patent US20030104406A1 (Pfizer, published 2003).
